Assay results: article PMC4336329 (PLoS ONE, 2015)
Hit rate of the full screen: of about 310,000 compounds, about 14,000 (4.5%) showed an effect of 50% or more. The effect is printed as a negative number. Some of the results follow.

These molecules were tested against human ether-à-go-go-related gene (hERG) potassium channel (human, UniProt Q12809) (assay: primary screen, population patch clamp on CHO cells stably expressing hERG).
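Note: peak tail current of the secondary pulse compared with the same well before compound.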

Chain of human ether-à-go-go-related gene (hERG) potassium channel (Q12809 whole entry, looked up): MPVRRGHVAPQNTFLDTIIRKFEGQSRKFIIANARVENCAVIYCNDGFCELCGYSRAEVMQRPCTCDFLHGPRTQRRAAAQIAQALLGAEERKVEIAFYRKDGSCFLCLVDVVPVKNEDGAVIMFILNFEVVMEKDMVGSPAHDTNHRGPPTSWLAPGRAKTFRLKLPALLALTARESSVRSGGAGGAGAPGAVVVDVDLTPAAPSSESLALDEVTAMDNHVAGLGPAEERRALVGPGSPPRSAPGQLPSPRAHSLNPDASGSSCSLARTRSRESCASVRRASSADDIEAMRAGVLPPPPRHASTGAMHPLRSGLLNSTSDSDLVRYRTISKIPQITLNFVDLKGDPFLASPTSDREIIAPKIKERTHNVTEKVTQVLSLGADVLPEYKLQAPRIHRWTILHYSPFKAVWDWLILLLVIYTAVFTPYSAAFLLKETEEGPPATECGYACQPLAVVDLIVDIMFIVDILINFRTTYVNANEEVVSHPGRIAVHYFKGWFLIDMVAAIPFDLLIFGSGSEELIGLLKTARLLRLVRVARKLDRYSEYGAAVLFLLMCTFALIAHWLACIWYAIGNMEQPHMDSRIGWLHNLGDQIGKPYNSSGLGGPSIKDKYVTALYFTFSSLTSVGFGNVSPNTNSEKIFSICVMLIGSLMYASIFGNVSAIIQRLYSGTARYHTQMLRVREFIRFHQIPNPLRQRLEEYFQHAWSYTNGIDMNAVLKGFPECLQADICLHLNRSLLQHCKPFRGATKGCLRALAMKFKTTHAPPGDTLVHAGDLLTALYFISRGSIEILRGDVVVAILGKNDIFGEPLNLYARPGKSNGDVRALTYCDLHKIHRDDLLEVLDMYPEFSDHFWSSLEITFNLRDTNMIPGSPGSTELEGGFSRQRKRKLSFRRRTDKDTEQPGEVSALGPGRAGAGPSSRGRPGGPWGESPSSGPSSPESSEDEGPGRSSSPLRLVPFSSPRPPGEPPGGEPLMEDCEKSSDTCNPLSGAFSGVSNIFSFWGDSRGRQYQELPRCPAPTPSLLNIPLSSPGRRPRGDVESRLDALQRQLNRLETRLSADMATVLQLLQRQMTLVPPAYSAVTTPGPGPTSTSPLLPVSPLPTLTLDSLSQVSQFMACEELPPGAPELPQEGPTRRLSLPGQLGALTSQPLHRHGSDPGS

Compound | hERG current change (%, negative = inhibition) at 10uM
CCCC(=O)Nc1sc2c(c1C#N)CCCCC2 | -50.6%
N#Cc1cc([N+](=O)[O-])cnc1Nc1ccccc1 | 9.2%
Cc1ccc2c(c1)N(CC(=O)NCCCN1CCCCC1)C(=O)CO2 | -24.4%
CCOC(=O)c1c(C)[nH]c(C(=O)CN(C)CC(=O)Nc2ccccc2C(F)(F)F)c1C | -3.72%
CCOCC(=O)N1CCN(c2ccccc2OC)CC1 | 17.1%
CC(=O)c1ccc(OCCCC(=O)Nc2cccc(S(=O)(=O)N(C)C)c2)cc1 | -26%
Cc1ccc(OCC(=O)Nc2ccc3c(c2)OC(F)(F)O3)c([N+](=O)[O-])n1 | 14.3%
C[C@@H](O)Cc1cn(CC(=O)NCCCCCCCCCCC(=O)N2CCNCC2)nn1 | -6.45%
COc1ccc(S(=O)(=O)N2CCN(C(=O)c3ccc([N+](=O)[O-])o3)CC2)cc1 | -51.3%
Cn1cc([N+](=O)[O-])c(C(=O)Nc2nc(-c3ccc(Cl)cc3)cs2)n1 | -0.217%
CCOc1ccc(-n2c(O)c(/C=C3\C=Nc4ccccc43)c(=O)[nH]c2=O)cc1 | 11.8%
Cc1noc(C)c1CSCC(=O)NCCN1C(=O)S/C(=C\c2ccccc2F)C1=O | -29.9%
CCn1ncc(C2=NOC(C(=O)Nc3c(C)n(C)n(-c4ccccc4)c3=O)C2)c1C (stereo not drawn) | 23.7%
CCOc1ccc(OCCC(=O)N(CC)CC(=O)Nc2c(F)cccc2F)cc1 | -60.2%
COc1cccc(/C=C/C(=O)OCC(=O)c2ccc(C)c(C)c2)c1OC | -8.03%
Cc1[nH]c2c(ccc3cccnc32)c1C | -7.31%
COc1ccc(/C=N\NC(=O)c2ccccc2Br)cc1COc1c(F)c(F)cc(F)c1F | -0.654%
COc1ccc(CCC(=O)NCCCNC(=O)CCc2ccc(OC)cc2)cc1 | -1.82%
CC(OC(=O)c1ccc2ncsc2c1)C(=O)Nc1cccc(Cl)c1 (stereo not drawn) | -1.01%
Cc1cc(NC(=O)CSc2nnc(C3CC3)n2N)no1 | 2.68%
CCOc1cc(/C=N/NC(=O)c2cccnc2)ccc1OCC(N)=O | 17.3%
CC(=O)N1CCC(=O)Nc2ccc([N+](=O)[O-])cc21 | 10.7%
O=C(Nc1cccc(C(F)(F)F)c1)C1CCCN1S(=O)(=O)c1cccc2cccnc12 (stereo not drawn) | -12.4%
Cc1ccc(NC(=O)CSc2ncn[nH]2)cc1 | 16.1%
